According to PubChem BioAssay AID504333 (National Center for Advancing Translational Sciences (NCATS), 2011):
Out of some 360,000 compounds screened, about 16,000 (4.4%) were called active. Inconclusive means that the source gave no clear call. Such entries were picked first, then a sample of the others. The call rests on the fitted dose curve; in most records, active means well fitted inhibition curve with a large enough effect; inconclusive means small, poorly fitted or top-dose-only effect; inactive means no such curve, though single readings can be large or run the other way. Potencies beside an inconclusive call are fits to weak or partial responses and may not hold up.

Molecular target: Bromodomain adjacent to zinc finger domain protein 2B (Homo sapiens) (UniProt Q9UIF8)
Assay: qHTS Assay for Inhibitors of BAZ2B; further: nearly all actives have a fitted effect of over 60% in size
Conditions: AlphaScreen BAZ2B-H3K14Ac peptide displacement; activity change, negative = inhibition: at 114 µM (top of the series)
In short: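 AlphaScreen displacement: compounds (up to 110uM) incubated 30 min at room temperature with a preformed 50 nM BAZ2B/50 nM biotinylated H3K14Ac peptide complex in PBS pH 7.4 with Tween-20. Donor and acceptor beads at 10 ug/mL final added, 20 min light-protected before reading.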
On the % scale 0 is the no-effect control and ±100 the full control effect; potency means the concentration at half of the fitted maximal effect; tags describe the fitted curve by direction and shape.

Chain of UniProt Q9UIF8 (Q9UIF8 whole entry, looked up, the tested form may be a part): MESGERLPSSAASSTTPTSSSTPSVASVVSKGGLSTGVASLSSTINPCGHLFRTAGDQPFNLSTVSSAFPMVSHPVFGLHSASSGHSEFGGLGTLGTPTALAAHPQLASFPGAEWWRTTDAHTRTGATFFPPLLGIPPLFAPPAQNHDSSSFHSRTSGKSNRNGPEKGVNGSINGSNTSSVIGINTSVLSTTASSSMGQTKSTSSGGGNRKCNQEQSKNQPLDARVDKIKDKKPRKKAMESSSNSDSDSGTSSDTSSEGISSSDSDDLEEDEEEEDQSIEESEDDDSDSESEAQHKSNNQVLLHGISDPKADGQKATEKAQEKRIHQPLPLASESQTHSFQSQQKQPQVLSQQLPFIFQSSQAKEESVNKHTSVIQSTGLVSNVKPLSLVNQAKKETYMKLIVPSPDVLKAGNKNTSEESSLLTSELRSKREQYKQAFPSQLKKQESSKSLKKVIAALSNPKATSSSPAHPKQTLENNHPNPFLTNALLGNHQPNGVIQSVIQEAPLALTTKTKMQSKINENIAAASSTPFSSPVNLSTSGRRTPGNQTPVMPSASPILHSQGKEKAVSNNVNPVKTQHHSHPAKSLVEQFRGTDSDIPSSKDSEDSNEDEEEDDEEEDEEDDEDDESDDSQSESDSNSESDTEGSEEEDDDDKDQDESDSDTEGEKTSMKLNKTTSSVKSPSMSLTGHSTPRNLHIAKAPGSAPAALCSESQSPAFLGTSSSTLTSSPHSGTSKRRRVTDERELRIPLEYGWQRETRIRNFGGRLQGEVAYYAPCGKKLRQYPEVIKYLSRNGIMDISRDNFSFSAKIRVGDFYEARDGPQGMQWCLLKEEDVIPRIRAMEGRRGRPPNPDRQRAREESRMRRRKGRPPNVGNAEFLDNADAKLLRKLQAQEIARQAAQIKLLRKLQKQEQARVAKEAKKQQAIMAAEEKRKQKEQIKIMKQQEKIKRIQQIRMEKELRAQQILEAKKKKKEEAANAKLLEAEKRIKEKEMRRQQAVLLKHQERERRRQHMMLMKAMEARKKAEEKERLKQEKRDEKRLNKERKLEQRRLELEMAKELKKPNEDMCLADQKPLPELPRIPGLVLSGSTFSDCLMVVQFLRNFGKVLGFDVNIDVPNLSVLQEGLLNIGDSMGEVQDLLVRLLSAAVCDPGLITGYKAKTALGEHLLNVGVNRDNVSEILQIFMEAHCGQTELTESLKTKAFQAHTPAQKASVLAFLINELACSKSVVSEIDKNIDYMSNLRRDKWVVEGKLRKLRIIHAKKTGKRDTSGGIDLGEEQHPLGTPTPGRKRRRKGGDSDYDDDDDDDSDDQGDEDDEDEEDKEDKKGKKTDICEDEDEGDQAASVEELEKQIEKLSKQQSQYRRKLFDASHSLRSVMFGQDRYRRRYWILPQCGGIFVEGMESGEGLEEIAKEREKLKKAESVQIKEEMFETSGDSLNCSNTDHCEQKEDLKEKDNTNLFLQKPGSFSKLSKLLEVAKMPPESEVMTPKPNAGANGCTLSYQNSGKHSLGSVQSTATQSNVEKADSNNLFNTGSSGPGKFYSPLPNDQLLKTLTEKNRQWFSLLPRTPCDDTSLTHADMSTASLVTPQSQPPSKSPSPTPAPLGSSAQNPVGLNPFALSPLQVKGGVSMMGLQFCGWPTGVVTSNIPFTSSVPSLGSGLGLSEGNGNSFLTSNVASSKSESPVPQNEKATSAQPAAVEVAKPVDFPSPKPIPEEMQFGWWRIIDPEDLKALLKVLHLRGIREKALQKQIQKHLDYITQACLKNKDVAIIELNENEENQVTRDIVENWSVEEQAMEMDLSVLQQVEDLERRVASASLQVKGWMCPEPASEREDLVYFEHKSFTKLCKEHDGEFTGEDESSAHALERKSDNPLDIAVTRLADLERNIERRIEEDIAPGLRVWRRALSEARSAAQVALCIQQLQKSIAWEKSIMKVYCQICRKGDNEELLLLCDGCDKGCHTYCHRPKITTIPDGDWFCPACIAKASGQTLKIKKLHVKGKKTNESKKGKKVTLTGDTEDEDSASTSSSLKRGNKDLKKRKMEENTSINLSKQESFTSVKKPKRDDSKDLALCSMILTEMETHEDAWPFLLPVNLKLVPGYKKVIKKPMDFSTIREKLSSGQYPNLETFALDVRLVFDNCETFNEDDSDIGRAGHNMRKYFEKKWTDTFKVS

Row | Structure (SMILES) | Potency | activity change, negative = inhibition
1 | Cc1ccccc1N=Cc1cccc(O)c1O | active: 39.8 µM | 
2 | Cc1c(Br)c(O)c(Br)c2sc(=O)oc12 | inconclusive: 50.1 µM [inhibitor, partial curve] | 
3 | Nc1nc(Nc2cccc(F)c2)nc2ccccc12 | inconclusive: 89.1 µM [inhibitor, single point] | 
4 | O=C(Nc1cc(S(=O)(=O)N2CCOCC2)ccc1N1CCOCC1)c1ccc(S(=O)(=O)N2CCCCC2)cc1 |  | inactive: 4.01%
5 | Cc1nc(Nc2ccccc2)sc1C | inconclusive: 50.1 µM [inhibitor, partial curve] | 
6 | O=C(O)C1Cc2[nH]cnc2C(c2cccc([N+](=O)[O-])c2)N1 (stereo not given) | inconclusive: 89.1 µM [inhibitor, single point] | 
7 | Cc1cc(N2C(=O)C(O)=C(C(=O)c3cc4ccccc4o3)C2c2cccs2)no1 (stereo not given) | inconclusive: 31.6 µM [inhibitor, partial curve] | 
8 | COc1cc(C)c(CNc2cc(C)cc(C)c2)cc1C | inconclusive: 50.1 µM [inhibitor, partial curve] | 
9 | O=C(NCc1ccc2c(c1)OCO2)c1cc(F)c(F)cc1Cl | inconclusive: 89.1 µM [inhibitor, single point] | 
10 | COc1ccc(NC(=O)C(c2cc3c(cc2[N+](=O)[O-])OCO3)N(C)Cc2ccccc2)cc1 (stereo not given) | inconclusive: 25.1 µM [inhibitor, full curve, poor fit] | 
11 | O=C(CNC(=O)c1cccc(S(=O)(=O)N2CCc3ccccc32)c1)Nc1ccc(F)c(F)c1F |  | inactive: 5.25%
12 | CCOc1ccc(NC(=O)c2sc(-n3nc(C)c(Cc4ccc(Cl)cc4)c3C)nc2C)cc1 | inconclusive: 89.1 µM [inhibitor, single point] | 
13 | COC(=O)c1sccc1S(=O)(=O)Nc1ccc(S(N)(=O)=O)cc1 |  | inactive: -3.52%
14 | Cn1cccc1-c1nc2ccccc2[nH]1 | inconclusive: 44.7 µM [inhibitor, partial curve] | 
15 | Cc1cc(=O)n(CC(=O)Nc2ccc(Cl)c(Cl)c2)c(-n2nc(C)cc2C)n1 | inconclusive: 56.2 µM [inhibitor, partial curve, poor fit] | 
16 | O=C(N/N=C/c1cc(Cl)c(O)c(Cl)c1)c1cc2c(ccc3ccccc32)o1 | active: 56.2 µM | 
17 | COc1ccc(NC(=O)CC2C(=O)N(c3ccccc3)C(=O)N2CCc2sccc2C)cc1 (stereo not given) |  | inactive: -11.1%
18 | Brc1ccc(-c2nn3c(-c4ccccn4)nnc3s2)o1 | active: 17.8 µM | 
19 | O=C(c1cc(Br)c(Br)s1)N1CCOCC1 |  | inactive: 6.76%
20 | Cc1ccc(S(=O)(=O)N(CC(=O)Nc2cccnc2)c2cc(Cl)ccc2C)cc1 | inconclusive: 28.2 µM [inhibitor, full curve] | 
21 | COc1ccc(/C=C2\Sc3ccc(C(=O)N4CCN(Cc5ccccc5)CC4)cc3N(C)C2=O)cc1OC | inconclusive: 15.8 µM [inhibitor, full curve] | 
22 | CC1CC(C)CN(C(=O)c2ccc(S(=O)(=O)N3CCCCC3)cc2)C1 (stereo not given) | inconclusive: 89.1 µM [inhibitor, single point] | 
23 | Cc1cc(C)nc(SCC(=O)c2ccc(O)c(O)c2)n1 | inconclusive: 79.4 µM [inhibitor, single point] | 
24 | C=CCS/C(N)=N\N=C\c1cc(Br)cc([N+](=O)[O-])c1O | inconclusive: 1.41 µM [inhibitor, full curve, poor fit] | 

Row | Structure (SMILES) | Potency | activity change, negative = inhibition
25 | COc1ccc(CC(=O)OCC(=O)Nc2ncc(Cl)c(C)c2Cl)cc1 | inconclusive: 89.1 µM [inhibitor, single point] | 
26 | O=[N+]([O-])c1ccc(S(=O)(=O)N2CCn3cccc3C2c2ccc(Br)cc2)cc1 (stereo not given) | inconclusive: 10 µM [inhibitor, full curve, poor fit] | 
27 | CCOc1ccc(C2NC(=O)c3sc(=S)n(-c4ccccc4)c3N2)cc1 (stereo not given) | inconclusive: 89.1 µM [inhibitor, single point] | 
28 | COc1cc(CNc2cccc3[nH]c(C(F)(F)F)nc23)cc(OC)c1 | inconclusive: 50.1 µM [inhibitor, partial curve] | 
29 | O=C(Nc1nnc(S(=O)(=O)N2CCN(c3ccc(F)cc3)CC2)s1)c1ccco1 | inconclusive: 50.1 µM [inhibitor, partial curve] | 
30 | Cc1cc2c(c(=O)o1)C1O[C@](c3ccsc3)(Cc3ccccc31)O2 | inconclusive: 14.1 µM [inhibitor, single point] | 
31 | COc1ccc2oc(-c3cccc(NC(=O)c4cc([N+](=O)[O-])ccc4N4CCOCC4)c3)nc2c1 | inconclusive: 2.82 µM [inhibitor, full curve, poor fit] | 
32 | CCc1nc2c(c(=O)c3ccccc3n2C)c(=O)n1C1CCCCCC1 | inconclusive: 89.1 µM [inhibitor, single point] | 
33 | CCOc1cc(-c2nnc(SCC(=O)NC3CCCCC3)nc2-c2ccc(OC)c(OCC)c2)ccc1OC | active: 79.4 µM | 
34 | CCN(Cc1nc(-c2ccccc2)no1)C(=O)c1ccoc1C |  | inactive: -11.2%
35 | Cc1ccc(-c2noc(C3CCCN(C(=O)c4ccc(Cl)cc4)C3)n2)o1 (stereo not given) | inconclusive: 56.2 µM [inhibitor, partial curve] | 
36 | CCOc1ccccc1NC(=S)NC(=O)CCCOc1ccc(Cl)cc1Cl | inconclusive: 11.2 µM [inhibitor, single point] | 
37 | O=C(O)CN1C(=O)SC(Nc2ccccc2C(=O)O)C1=O (stereo not given) | inconclusive: 89.1 µM [inhibitor, single point] | 
38 | COC(=O)C1=C(C)N(CCc2ccc(OC)c(OC)c2)C(=O)/C1=C\N(C)C |  | inactive: -3.29%
39 | CCS(=O)(=O)NCc1ccc2[nH]c3c(c2c1)CCCC3 | inconclusive: 31.6 µM [inhibitor, single point] | 
40 | CC1=CC2=NC(=O)/C(=C\c3cccn3CCOc3ccccc3)C(=N)N2O1 | inconclusive: 44.7 µM [inhibitor, partial curve] | 
41 | C=CCNCCOc1ccc(C)cc1[N+](=O)[O-] | active: 39.8 µM | 
42 | COc1ccc(CCNCC(=O)Nc2ccc(C)c(Br)c2)cc1OC | inconclusive: 50.1 µM [inhibitor, partial curve] | 
43 | CN(CCOc1ccccc1)CC(=O)Nc1ccc(Cl)cc1[N+](=O)[O-] | active: 12.6 µM | 
44 | O=C(NNC(=O)C1CC1)c1cccc([N+](=O)[O-])c1 |  | inactive: -12.4%
45 | CCCCN1C(=O)c2[nH]nc(-c3ccccc3O)c2C1c1ccc(OCc2ccccc2)c(OC)c1 (stereo not given) | inconclusive: 22.4 µM [inhibitor, full curve] | 
46 | COc1ccc(Cn2ccc3nc(C)c(C(=O)N4CCN(c5ccc(F)cc5)CC4)cc3c2=O)cc1 |  | inactive: -16.6%
47 | Cc1cccc(NC(=O)CSCC(=O)Nc2ccccc2C(=O)NC2CC2)c1 |  | inactive: 1.08%
48 | CCOC(=O)c1cccc(NC(=O)CCc2c(C)nn(-c3ccc(N4CCCCC4)nn3)c2C)c1 | inconclusive: 17.8 µM [inhibitor, full curve] | 

Row | Structure (SMILES) | Potency | activity change, negative = inhibition
49 | O=C(NCC(c1ccco1)N1CCc2ccccc21)c1ccc([N+](=O)[O-])cc1 (stereo not given) |  | inactive: -6.74%
50 | COc1ccc(N(CC(=O)Nc2ccccc2C(=O)O)S(=O)(=O)c2ccc(C)c([N+](=O)[O-])c2)cc1 | inconclusive: 56.2 µM [inhibitor, partial curve] | 
51 | COc1ccc(NC(C)=[N+](C)CCNS(=O)(=O)c2ccc(Cl)cc2)cc1Cl |  | inactive: -16.6%
52 | COc1ccc(S(=O)(=O)Oc2cc(C(=S)N3CCOCC3)ccc2OC)cc1 |  | inactive: -25.8%
53 | COc1ccc(CN(C)C(=S)Nc2ccc(Cl)cc2)cc1 |  | inactive: 1.59%
54 | Cc1cc(Oc2ccc(N)cn2)ccc1Cl | inconclusive: 39.8 µM [inhibitor, partial curve] | 
55 | Cc1cc(C)nc(N/N=C/c2ccccc2OCc2ccccc2)n1 |  | inactive: -10.7%
56 | CCCN(Cc1ccc(N(CC)CC)cc1)CC1CC1 | inconclusive: 79.4 µM [inhibitor, partial curve] | 
57 | Cc1noc(C)c1S(=O)(=O)Nc1ccccc1N1CCOCC1 |  | inactive: -0.836%
58 | COC(=O)CCC(=O)OC1(C)C(=O)C2=CN(C3CCCC3)C(c3ccc(OC)cc3)=CC2=C(Br)C1=O (stereo not given) | active: 44.7 µM | 
59 | COc1cccc(-c2cc(C(=O)Nc3cnn(Cc4ccc(Cl)cc4Cl)c3)no2)c1 |  | inactive: 0.0447%
60 | Cn1nc(C(C)(C)C)cc1C(=O)NNC(=O)c1ccccc1Cl | inconclusive: 39.8 µM [inhibitor, single point] | 
61 | C/C(=N\Nc1cc(C)nc(-c2ccccc2)n1)c1cccc([N+](=O)[O-])c1 | inconclusive: 79.4 µM [inhibitor, single point] | 
62 | Cc1cccc(OCCn2c(=S)[nH]c3ccccc32)c1 | inconclusive: 79.4 µM [inhibitor, single point] | 
63 | O=C(Oc1ccc2c(c1)O/C(=C\c1ccncc1)C2=O)c1ccccc1 | inconclusive: 70.8 µM [inhibitor, single point] | 
64 | CCOCCCn1c(=N)c(C(=O)NCc2ccc3c(c2)OCO3)cc2c(=O)n3cccc(C)c3nc21 | inconclusive: 70.8 µM [inhibitor, single point] | 
65 | CCOc1ccc(CN2CCNC(=O)C2CC(=O)NCCc2cnccn2)cc1 (stereo not given) |  | inactive: -2.76%
66 | CCOc1ccc(S(=O)(=O)Nc2cccc(C(=O)NCC(c3ccc(OC)cc3)N3CCOCC3)c2)cc1 (stereo not given) |  | inactive: -23.9%
67 | COc1cc(/C=N/N2CCOCC2)ccc1OCc1ccccc1 | inconclusive: 25.1 µM [inhibitor, full curve] | 
68 | COc1cc(C2c3c([nH]c(=O)[nH]c3=O)Nc3ccc4ccccc4c32)cc(OC)c1OC (stereo not given) | active: 56.2 µM | 
69 | CC(C)n1c(-c2ccncc2)n[nH]c1=S | inconclusive: 89.1 µM [inhibitor, single point] | 
70 | O=C(CSc1ncn[nH]1)c1ccccc1 | inconclusive: 89.1 µM [inhibitor, single point] | 
